The source of these data is PMC11077052 (Nucleic Acids Research, 2024).

This test deals with Human apurinic/apyrimidinic endonuclease 1 (human, UniProt P27695). Kind of test: ITC. Background: Isothermal titration calorimetry measures the heat released or taken up as one component is titrated into another.
UniProt P27695, sequence (P27695 whole entry): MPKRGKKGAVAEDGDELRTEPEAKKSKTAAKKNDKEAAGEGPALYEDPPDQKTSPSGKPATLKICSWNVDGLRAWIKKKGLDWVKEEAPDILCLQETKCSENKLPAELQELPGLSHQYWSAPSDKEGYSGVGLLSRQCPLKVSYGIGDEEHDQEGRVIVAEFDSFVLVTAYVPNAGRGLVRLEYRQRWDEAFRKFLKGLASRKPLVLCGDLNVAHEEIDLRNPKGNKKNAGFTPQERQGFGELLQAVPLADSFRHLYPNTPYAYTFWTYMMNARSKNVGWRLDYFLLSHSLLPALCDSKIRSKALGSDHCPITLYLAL

B1: Avidin (natural protein, UniProt P02701 25-152, looked up)
chain: ARKCSLTGKWTNDLGSNMTIGAVNSRGEFTGTYITAVTATSNEIKESPLHGTQNTINKRTQPTFGFTVNWKFSESTTVFTGQCFIDRNGKEVLKTMWLLRSSVNDIGDDWKATRVGINIFTRLRTQKE
modifications: glycosyl residues (positions not stated)
As to B1, the “fold increase of binding affinity with biotin against without biotin” value was around 6 fold.
